# From the supplement of paper PMC8728848
# Some of the results follow.
# What was measured:
# Assay in all cases: glycan array binding signal (z-score within array); higher = stronger binding
# Conditions in all cases: glycan notation: IUPAC condensed, linker removed
# [1] = molecular target: Gal3S(b1-3)[Fuc(a1-4)]GlcNAc
# In short: (§1)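 Glycan array binding is given as a within-array Z-score, which can be read as non-binding when negative. The arrays, 3228 of them, came from the Consortium for Functional Glycomics database and were retained only where the protein sequence was available. Z-scores were averaged across arrays of the same protein sequence at different concentrations or buffers and across linkers.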
# Gal3S(b1-4)Glc = molecular target: Gal3S(b1-4)Glc
# In short: as §1
# Gal3S(b1-4)Glc6S = molecular target: Gal3S(b1-4)Glc6S
# In short: as §1
# Gal3S(b1-4)GlcNAc = molecular target: Gal3S(b1-4)GlcNAc
# In short: as §1
# [2] = molecular target: Gal3S(b1-4)[Fuc(a1-3)]Glc6S
# In short: as §1
# [3] = molecular target: Gal3S(b1-4)[Fuc(a1-3)]GlcNAc
# In short: as §1
# [4] = molecular target: Gal3S(b1-4)[Fuc(a1-3)]GlcNAc6S
# In short: as §1
# Gal3S4S(b1-4)GlcNAc = molecular target: Gal3S4S(b1-4)GlcNAc
# In short: as §1
# Gal3S6S(b1-4)GlcNAc = molecular target: Gal3S6S(b1-4)GlcNAc
# In short: as §1
# Gal3S6S(b1-4)GlcNAc6S = molecular target: Gal3S6S(b1-4)GlcNAc6S
# In short: as §1
# Gal4S(b1-4)GlcNAc = molecular target: Gal4S(b1-4)GlcNAc
# In short: as §1
# Gal4S6S(b1-4)GlcNAc = molecular target: Gal4S6S(b1-4)GlcNAc
# In short: as §1
# Gal6P(b1-4)GlcNAc = molecular target: Gal6P(b1-4)GlcNAc
# In short: as §1
# Gal6S(b1-3)GlcNAc = molecular target: Gal6S(b1-3)GlcNAc
# In short: as §1
# Gal6S(b1-3)GlcNAc6S = molecular target: Gal6S(b1-3)GlcNAc6S
# In short: as §1
# Gal6S(b1-4)Glc = molecular target: Gal6S(b1-4)Glc
# In short: as §1
# Gal6S(b1-4)Glc6S = molecular target: Gal6S(b1-4)Glc6S
# In short: as §1
# Gal6S(b1-4)GlcNAc = molecular target: Gal6S(b1-4)GlcNAc
# In short: as §1
# Gal6S(b1-4)GlcNAc6S = molecular target: Gal6S(b1-4)GlcNAc6S
# In short: as §1
# GalNAc(a1-3)Gal = molecular target: GalNAc(a1-3)Gal
# In short: as §1
# GalNAc(a1-3)GalNAc = molecular target: GalNAc(a1-3)GalNAc
# In short: as §1
# [5] = molecular target: GalNAc(a1-3)GalNAc(b1-3)Gal(a1-4)Gal(b1-4)Glc
# In short: as §1
# [6] = molecular target: GalNAc(a1-3)GalNAc(b1-3)Gal(a1-4)Gal(b1-4)GlcNAc
# In short: as §1
# GalNAc(b1-3)Gal = molecular target: GalNAc(b1-3)Gal
# In short: as §1
# [7] = molecular target: GalNAc(b1-3)Gal(a1-4)Gal(b1-4)GlcNAc
# In short: as §1
# [8] = molecular target: GalNAc(b1-3)Gal(a1-4)Gal(b1-4)GlcNAc(b1-3)Gal(b1-4)Glc
# In short: as §1
# [9] = molecular target: GalNAc(b1-3)Gal(a1-6)Gal(b1-4)Glc
# In short: as §1
# GalNAc(b1-3)GalNAc = molecular target: GalNAc(b1-3)GalNAc
# In short: as §1
# GalNAc(b1-3)GlcNAc = molecular target: GalNAc(b1-3)GlcNAc
# In short: as §1
# GalNAc(b1-4)Gal(b1-4)Glc = molecular target: GalNAc(b1-4)Gal(b1-4)Glc
# In short: as §1
# GalNAc(b1-4)GlcNAc = molecular target: GalNAc(b1-4)GlcNAc
# In short: as §1
# [10] = molecular target: GalNAc(b1-4)GlcNAc(b1-2)Man
# In short: as §1
# [11] = molecular target: GalNAc(b1-4)GlcNAc(b1-2)Man(a1-3)[GalNAc(b1-4)GlcNAc(b1-2)Man(a1-6)]Man(b1-4)GlcNAc(b1-4)GlcNAc
# In short: as §1
# [12] = molecular target: GalNAc(b1-4)GlcNAc(b1-3)GalNAc(b1-4)GlcNAc
# In short: as §1
# GalNAc(b1-4)GlcNAc6S = molecular target: GalNAc(b1-4)GlcNAc6S
# In short: as §1
# GalNAc(b1-6)GalNAc = molecular target: GalNAc(b1-6)GalNAc
# In short: as §1
# GalNAc3S(b1-4)GlcNAc = molecular target: GalNAc3S(b1-4)GlcNAc
# In short: as §1
# GalNAc3S(b1-4)GlcNAc3S = molecular target: GalNAc3S(b1-4)GlcNAc3S
# In short: as §1
# [13] = molecular target: GalNAc3S(b1-4)[Fuc(a1-3)]GlcNAc
# In short: as §1
# GalNAc4S6S(b1-4)GlcNAc = molecular target: GalNAc4S6S(b1-4)GlcNAc
# In short: as §1
# GalNAc6S(b1-4)GlcNAc = molecular target: GalNAc6S(b1-4)GlcNAc
# In short: as §1
# Glc(a1-4)Glc = molecular target: Glc(a1-4)Glc
# In short: as §1
# [14] = molecular target: Glc(a1-4)Glc(a1-4)Glc(a1-4)Glc
# In short: as §1
# Glc(a1-6)Glc(a1-6)Glc = molecular target: Glc(a1-6)Glc(a1-6)Glc
# In short: as §1
# [15] = molecular target: Glc(a1-6)Glc(a1-6)Glc(a1-6)Glc
# In short: as §1
binder,measurement,setting,value
"CFEM-CGl (Candida glabrata), Q6FRS0 (protein) VLATPPACLLACVAQVSKQSSQCHTLNQVGCFCENENTAIKNCLDSICPNGNSDAAYTAFKNSCGDVGKAVASV",glycan array binding signal (z-score),[1],-0.252
same,glycan array binding signal (z-score),Gal3S(b1-4)Glc,-0.298
same,glycan array binding signal (z-score),Gal3S(b1-4)Glc6S,-0.122
same,glycan array binding signal (z-score),Gal3S(b1-4)GlcNAc,-0.323
same,glycan array binding signal (z-score),[2],0.202
same,glycan array binding signal (z-score),[3],-0.353
same,glycan array binding signal (z-score),[4],0.168
same,glycan array binding signal (z-score),Gal3S4S(b1-4)GlcNAc,0.018
same,glycan array binding signal (z-score),Gal3S6S(b1-4)GlcNAc,0.092
same,glycan array binding signal (z-score),Gal3S6S(b1-4)GlcNAc6S,0.41
same,glycan array binding signal (z-score),Gal4S(b1-4)GlcNAc,-0.45
same,glycan array binding signal (z-score),Gal4S6S(b1-4)GlcNAc,-0.484
same,glycan array binding signal (z-score),Gal6P(b1-4)GlcNAc,-0.384
same,glycan array binding signal (z-score),Gal6S(b1-3)GlcNAc,-0.072
same,glycan array binding signal (z-score),Gal6S(b1-3)GlcNAc6S,-0.34
same,glycan array binding signal (z-score),Gal6S(b1-4)Glc,-0.14
same,glycan array binding signal (z-score),Gal6S(b1-4)Glc6S,0.168
same,glycan array binding signal (z-score),Gal6S(b1-4)GlcNAc,-0.187
same,glycan array binding signal (z-score),Gal6S(b1-4)GlcNAc6S,0.206
same,glycan array binding signal (z-score),GalNAc(a1-3)Gal,-0.414
same,glycan array binding signal (z-score),GalNAc(a1-3)GalNAc,-0.488
same,glycan array binding signal (z-score),[5],-0.187
same,glycan array binding signal (z-score),[6],-0.037
same,glycan array binding signal (z-score),GalNAc(b1-3)Gal,-0.469
same,glycan array binding signal (z-score),[7],0.209
same,glycan array binding signal (z-score),[8],-0.505
same,glycan array binding signal (z-score),[9],-0.052
same,glycan array binding signal (z-score),GalNAc(b1-3)GalNAc,-0.224
same,glycan array binding signal (z-score),GalNAc(b1-3)GlcNAc,-0.339
same,glycan array binding signal (z-score),GalNAc(b1-4)Gal(b1-4)Glc,-0.317
same,glycan array binding signal (z-score),GalNAc(b1-4)GlcNAc,-0.201
same,glycan array binding signal (z-score),[10],-0.374
same,glycan array binding signal (z-score),[11],0.055
same,glycan array binding signal (z-score),[12],0.216
same,glycan array binding signal (z-score),GalNAc(b1-4)GlcNAc6S,0.068
same,glycan array binding signal (z-score),GalNAc(b1-6)GalNAc,-0.387
same,glycan array binding signal (z-score),GalNAc3S(b1-4)GlcNAc,-0.153
same,glycan array binding signal (z-score),GalNAc3S(b1-4)GlcNAc3S,0.03
same,glycan array binding signal (z-score),[13],0.083
same,glycan array binding signal (z-score),GalNAc4S6S(b1-4)GlcNAc,-0.265
same,glycan array binding signal (z-score),GalNAc6S(b1-4)GlcNAc,-0.2
same,glycan array binding signal (z-score),Glc(a1-4)Glc,-0.206
same,glycan array binding signal (z-score),[14],-0.555
same,glycan array binding signal (z-score),Glc(a1-6)Glc(a1-6)Glc,-0.33
same,glycan array binding signal (z-score),[15],-0.444
